# Several values for one entry are separate records, joined by “and”; a condition that tells them apart may be missing. Equal entries are not always repeated. Among all 280,000 compounds or so, about 1,100 (0.39%) were called active. The inconclusive results got no clear call from the source; some entries with a clear call stand among them for comparison. Calls come from the whole dose curve; as a rule, active = well fitted inhibition curve with a large enough effect; inconclusive = small, poorly fitted or top-dose-only effect, or effect the other way; inactive = flat fitted curve, though single readings scatter. Potencies beside an inconclusive call are fits to weak or partial responses and may not hold up.
# Biological target: Microtubule-associated protein tau (Homo sapiens) (UniProt P10636)
# Test: qHTS for Inhibitors of Tau Fibril Formation, Fluorescence Polarization; note: nearly all actives have a fitted effect of over 55% in size
# Details: K18 P301L tau heparin fibrillization, Alexa594 FP, 6 h; series mostly up to 57.7 µM; activity, negative = inhibition: at the top concentration
# Outline: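 Human K18 P301L fragment (15 uM unlabeled plus 0.24 uM Alexa 594-labeled) in 100 mM sodium acetate pH 7 with compound, aggregation induced by 20 uM heparin for 6 hr at 37 C. ThT (30 uM) added for 1 hr, then Alexa 594 FP read.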
# % is set by controls: 0 for no effect and ±100 for the full control effect; potency is the fitted concentration of half-maximal effect; tags give direction and shape of the fitted curve.
# UniProt P10636, sequence (P10636 whole entry, looked up): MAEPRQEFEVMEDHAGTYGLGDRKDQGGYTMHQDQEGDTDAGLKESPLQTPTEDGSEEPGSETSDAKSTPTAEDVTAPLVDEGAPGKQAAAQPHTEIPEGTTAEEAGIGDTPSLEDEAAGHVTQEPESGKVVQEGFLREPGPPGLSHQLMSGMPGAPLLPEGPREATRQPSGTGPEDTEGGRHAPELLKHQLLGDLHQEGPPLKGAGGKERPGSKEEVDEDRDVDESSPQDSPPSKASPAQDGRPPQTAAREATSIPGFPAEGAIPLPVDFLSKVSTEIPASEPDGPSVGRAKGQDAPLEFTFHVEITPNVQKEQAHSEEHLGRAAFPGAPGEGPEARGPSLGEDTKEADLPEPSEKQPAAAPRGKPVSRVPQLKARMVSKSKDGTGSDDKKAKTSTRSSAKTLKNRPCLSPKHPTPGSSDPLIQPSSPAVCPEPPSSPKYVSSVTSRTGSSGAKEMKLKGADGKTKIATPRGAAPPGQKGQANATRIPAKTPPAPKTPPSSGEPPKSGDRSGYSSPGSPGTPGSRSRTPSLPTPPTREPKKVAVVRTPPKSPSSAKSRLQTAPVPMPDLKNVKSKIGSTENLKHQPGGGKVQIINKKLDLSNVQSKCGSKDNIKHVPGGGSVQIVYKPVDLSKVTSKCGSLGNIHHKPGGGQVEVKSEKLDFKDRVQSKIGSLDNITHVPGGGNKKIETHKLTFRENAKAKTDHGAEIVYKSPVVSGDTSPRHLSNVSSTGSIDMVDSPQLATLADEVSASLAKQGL
SMILES,"activity, negative = inhibition",Potency
CCOc1cccc(C(=O)N(Cc2ccc(C(C)C)cc2)C2CCS(=O)(=O)C2)c1 (configuration not stated),inactive: 6.03%,–
CCN(c1cccc(C)c1)C(C(=O)Nc1ccc(OC)cc1)c1cc2c(cc1[N+](=O)[O-])OCO2 (configuration not stated),–,"inconclusive: 15.8 µM [activator, partial curve]"
CCCNCCC(c1ccco1)c1ccccc1OC (configuration not stated),inactive: -5.12%,–
CCOC(=O)NC(N(O)c1cccc(Cl)c1)C(Cl)(Cl)Cl (configuration not stated),–,"inconclusive: 35.5 µM [inhibitor, partial curve]"
CCOC(=O)c1sc2nc3n(c(=O)c2c1C)CCC3,inactive: -11.6%,–
Cc1ccc(Cl)cc1NC(=S)NCCCSC1CCCCC1,–,"inconclusive: 39.8 µM [inhibitor, single point]"
Nc1nonc1-c1nc2ccccc2n1CC(=O)Nc1cccc(C(F)(F)F)c1,–,"inconclusive: 20 µM [inhibitor, partial curve]"
CCCN(CCC)CCNC(=O)c1cc2c(=O)oc3ccc(C)cc3c2s1,inactive: -5.04%,–
O=C(Oc1ccc(N(Cc2cccs2)C2=NS(=O)(=O)c3ccccc32)cc1)c1ccccc1,–,"inconclusive: 25.1 µM [inhibitor, single point]"
O=C(O)COc1ccccc1C(Nc1cccnc1)c1cc(Cl)c2cccnc2c1O (configuration not stated),–,active: 31.6 µM
CCc1ccccc1NC(=O)N1CCN(Cc2nc3ccc(C)cc3o2)CC1,inactive: 3.36%,–
CCCOc1ccc(NC(=O)CC2C(=O)N(CC)C(=S)N2Cc2cccs2)cc1 (configuration not stated),–,"inconclusive: 39.8 µM [inhibitor, single point]"
O=[N+]([O-])c1c(NCCCO)cc(Sc2ccc(Cl)cc2)c2nonc12,–,"inconclusive: 0.0631 µM [inhibitor, full curve, poor fit]"
Cc1ccc(-n2ncc3c(Nc4ccc(Oc5ccccc5)cc4)ncnc32)cc1,–,"inconclusive: 39.8 µM [inhibitor, single point]"
CCc1ccccc1NC(=O)C(C#N)Cc1cccnc1 (configuration not stated),inactive: 8.58%,–
FC(F)(F)c1cccc(Nc2nc(N3CCCC3)nc(N3CCCC3)n2)c1,–,"inconclusive: 39.8 µM [inhibitor, single point]"
CC(C)CC(=O)Nc1ccc(OCC(=O)O)cc1,–,"inconclusive: 8.91 µM [inhibitor, single point]"
Cc1noc(C)c1S(=O)(=O)N(CC(=O)Nc1ccc(C(F)(F)F)cc1)c1ccc(C(C)C)cc1,–,"inconclusive: 3.55 µM [inhibitor, full curve]"
COC(=O)c1cccc(NC(=S)N2CCN(c3ccccc3F)CC2)c1,inactive: -8.4%,–
Cc1nc(SCc2ccccc2)c2ccsc2n1,–,"inconclusive: 7.94 µM [inhibitor, full curve, poor fit]"
O=c1cc(N2CCCCC2)c(-c2ccccc2)nn1Cc1ccc(Cl)cc1,inactive: 7.57%,–
O=C(N/N=C/c1cccc(OC(=O)N2CCOCC2)c1)c1cccs1,–,"inconclusive: 10 µM [inhibitor, single point]"
COc1ccc2nc(NC(=O)Cc3cccs3)sc2c1,inactive: 4.58%,–

SMILES,"activity, negative = inhibition",Potency
CCOC(=O)C1=C(Cc2ccc(C)cc2)C(=O)c2ccccc2C1=O,–,active: 35.5 µM
COc1ccc(/C=C2\CCc3c2nc2ccccc2c3C(=O)O)cc1OC,inactive: 8.51%,–
COc1ccc(NC(=O)NC23CC4(C)CC(C)(CC(C)(C4)C2)C3)cc1,–,"inconclusive: 4.47 µM [activator, full curve]"
CN(c1cccc(NC(=O)CN(c2cccc(Cl)c2)S(=O)(=O)c2ccc(Cl)cc2)c1)S(C)(=O)=O,–,"inconclusive: 15.8 µM [inhibitor, partial curve]"
NNc1nc2ccc(F)cc2s1,–,"inconclusive: 28.2 µM [inhibitor, single point]"
O=C(Nc1nnc(-c2ccccc2SCc2ccccc2F)s1)Nc1ccccc1F,–,"inconclusive: 14.1 µM [inhibitor, partial curve]"
COC(=O)C1CCN(CC(=O)Nc2cc(Cl)ccc2OC)CC1,inactive: -1.41%,–
CCc1ccc2occ(CC(=O)Nc3c(C(=O)c4ccc(F)cc4)oc4ccccc34)c2c1,–,"inconclusive: 31.6 µM [inhibitor, partial curve]"
Brc1ccc2nc(N3CCN(c4ccccc4)CC3)sc2c1,–,"inconclusive: 10 µM [inhibitor, partial curve]"
CCOC(=O)N1CCC(C(=O)Nc2ccc(OCC)cc2)CC1,–,"inconclusive: 10 µM [activator, partial curve]"
Cc1cc(OCC(=O)Nc2cc(-c3nc4ccccc4[nH]3)ccc2C)ccc1Cl,–,"inconclusive: 15.8 µM [inhibitor, partial curve]"
CSc1ncccc1C(=O)OCC(=O)C(C)(C)C,inactive: 4.69%,–
O=C(CCC(=O)N1CCc2ccccc21)Nc1ccccc1,–,"inconclusive: 39.8 µM [inhibitor, single point]"
CCC(C)C(NC(=O)c1ccccc1NC(=O)c1ccco1)C(=O)NC1CCCCC1 (configuration not stated),–,"inconclusive: 0.158 µM [inhibitor, single point]"
CN(C)c1ccnc(SCc2ccccc2Cl)c1C#N,–,"inconclusive: 31.6 µM [inhibitor, single point]"
CN(C)CC(=O)Nc1ccc(S(N)(=O)=O)cc1,–,"inconclusive: 3.16 µM [inhibitor, partial curve]"
CC(C)(C)c1ccc(C(=O)NCC(c2cccs2)S(=O)(=O)c2ccc(F)cc2)cc1 (configuration not stated),–,"inconclusive: 11.2 µM [inhibitor, partial curve]"
N#C/C(=C/c1ccc(C(=O)O)cc1)C(=O)Nc1ccccc1,inactive: -1.64%,–
CCOC(=O)C1=C(C)NC(=O)/C1=C\N(C)C,–,"inconclusive: 22.4 µM [inhibitor, partial curve]"
COCCn1c(NC(=S)NC(=O)C2CC2)cc(=O)[nH]c1=O,inactive: -5.38%,–
CC1(C)[C@@H](O)CC[C@]2(C)[C@H]3C(=O)C=C4[C@@H]5C[C@@](C)(C(=O)O)CC[C@]5(C)CC[C@@]4(C)[C@]3(C)CC[C@@H]12,–,"inconclusive: 39.8 µM [activator, single point]"
COc1ccccc1Cn1cc(C(=O)c2ccc(Cl)cc2)c(=O)c2cc3c(cc21)OCCO3,–,"inconclusive: 39.8 µM [inhibitor, single point]"
Cc1ccc(C(=O)Oc2cccc(NC(=O)c3ccco3)c2)cc1S(=O)(=O)N1CCC(C)CC1,–,"inconclusive: 11.2 µM [inhibitor, partial curve]"

SMILES,"activity, negative = inhibition",Potency
O=C(Nc1ccc2nc(SCc3ccccc3)sc2c1)c1cccc(F)c1,–,"inconclusive: 7.08 µM [inhibitor, partial curve]"
Cc1ccc(C(=O)N/C(=C\c2sccc2C)C(=O)NCc2ccncc2)cc1,–,"inconclusive: 31.6 µM [activator, single point]"
COc1ccc2c(c1)c(CC(=O)O)c(C)n2Cc1ccc(Cl)cc1,–,"inconclusive: 44.7 µM [inhibitor, single point]"
Cc1ccc(-c2cc(-c3ccc4c(c3)NC(=O)CO4)nc3c2COc2ccc(C)cc2-3)cc1,–,"inconclusive: 15.8 µM [inhibitor, partial curve]"
COc1ccc(-c2noc(COc3cc(C)c(Br)c(C)c3)n2)cc1OC,–,"inconclusive: 28.2 µM [inhibitor, single point]"
COc1ccc(OC)c(CNC(=O)c2cc3cc4ccc(OC)cc4nc3o2)c1,–,"inconclusive: 11.2 µM [inhibitor, single point]"
CCCN1C(=O)c2[nH]nc(-c3ccccc3O)c2C1c1cccc(OCc2ccccc2)c1 (configuration not stated),–,"inconclusive: 14.1 µM [inhibitor, partial curve]"
CCOC(=O)CSc1nc(N)c(C#N)c(-c2cccs2)c1C#N,–,"inconclusive: 28.2 µM [inhibitor, single point]"
O=c1oc2ccccc2nc1/C=C(O)/C=C\c1ccccc1,–,"inconclusive: 17.8 µM [inhibitor, single point]"
NC(N)=Nc1nc2ccc(Br)cc2c(=O)[nH]1,–,"inconclusive: 44.7 µM [inhibitor, single point]"
Cc1ccc(OCC(=O)N/N=C/c2cn[nH]c2-c2ccc(Cl)c(Cl)c2)cc1,–,"inconclusive: 14.1 µM [inhibitor, partial curve]"
Cc1ccc(CSc2ccc(-c3cccs3)nn2)cc1,–,"inconclusive: 8.91 µM [inhibitor, single point] and inconclusive: 10 µM [inhibitor, partial curve, poor fit]"
O=C(NCc1ccccc1Cl)c1cc2c(s1)-c1ccccc1SC2,–,"inconclusive: 22.4 µM [inhibitor, partial curve, poor fit]"
CN1C2CCC1CC(NC(=O)CSCc1ccc(Cl)cc1Cl)C2 (configuration not stated),–,"inconclusive: 1 µM [inhibitor, single point]"
CO[C@@H]1COC(=O)CCC[C@@H](C)[C@H](OC)COC(=O)[C@H](Cc2ccccc2)NC(=O)C/C=C\[C@H]1C,inactive: 0.793% [at 11.6 µM],–
CCOC(=O)c1sc(N)c(C(=O)OCC)c1C,inactive: 11.1%,–
FC(F)(F)c1cc(-c2ccco2)nc(NCCc2ccccc2)n1,–,"inconclusive: 28.2 µM [inhibitor, single point]"
Cc1ccc2nc(NC(=O)C3CCN(S(=O)(=O)c4cccs4)CC3)sc2c1,–,"inconclusive: 39.8 µM [inhibitor, single point]"
O=C(CCc1nnc2n(Cc3ccccc3Cl)c(=O)c3ccccc3n12)Nc1ccc(F)c(F)c1,–,"inconclusive: 11.2 µM [inhibitor, partial curve]"
Cc1ccccc1NC(=O)CSc1nc(N)c(C#N)c(-c2cccs2)c1C#N,–,"inconclusive: 44.7 µM [inhibitor, single point]"
Cc1oc(-c2ccccc2)nc1CSc1nnc(C)n2c1cc1sccc12,–,"inconclusive: 22.4 µM [activator, single point]"

# Reference: PubChem BioAssay AID1468 (National Center for Advancing Translational Sciences (NCATS), 2008)
